Measured values: PubChem BioAssay AID1508624 (National Center for Advancing Translational Sciences (NCATS), 2021)
Screen size: about 48,000 compounds; about 120 (0.25%) were called active. Not shown: some 4% with an inconclusive outcome. Calls come from the whole dose curve; as a rule, active = well fitted activation curve with a large enough effect; inconclusive = small, poorly fitted or top-dose-only effect, or another doubt; inactive = no such curve, though single readings can be large or run the other way. The list shows a part of the results.

Test: Primary qHTS for Identification of Small Molecule Activators of Huntingtin-Antisense Promoter Activity; note: nearly all actives have a fitted effect of over 55% in size
Conditions: HEK293 HTT-AS promoter firefly luciferase reporter (activity 0% = vehicle and -100% = no light), 24 h; series mostly up to 57.5 µM; activity change, positive = activation: at the top concentration
Method in brief: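 Firefly luciferase readout (Dual-Glo, 10 min RT) after 24 h, 37 °C compound exposure (final up to 57.5 uM) of HEK293 reporter cells cultured 24 h beforehand; PTC124 at 50 uM final as control inhibitor; activity scaled vehicle 0%, zero RLU -100%.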

Activity change, positive = activation, inactive:
CC(=O)c1ccc(NC(=O)CSc2nnc3ccc(-c4ccc(Br)cc4)nn23)cc1 0.099%
COc1ccccc1NC(=O)CCC(=O)N1CC(C)Oc2ccc(C)cc21 (stereo not given) -6.87%
Cc1ccc(C(=O)c2c(N)c(C(=O)Nc3ccccc3Cl)c3ccccn23)cc1 6.4%
COC(=O)CNC(=O)C1CCN(S(=O)(=O)c2cccc3nsnc23)CC1 0.153%
CCOc1ccc(OCC(=O)NCCS(=O)(=O)N2CCN(c3ccccc3F)CC2)cc1 -8.22%
O=C(CN1C(=O)COc2ccc(Cl)cc21)Nc1cccc(F)c1 -14.6%
Cc1ccc(CCNC(=O)c2ccc3c(c2)nc2n3CCCCC2)cc1 -6.16%
Cc1sc2ncn(CC(=O)Nc3cccc(C(F)(F)F)c3)c(=O)c2c1S(=O)(=O)N1CCN(C)CC1 -4.96%
COc1cc2c(Nc3ccc(Br)cc3F)ncnc2cc1OCC1CCN(C)CC1
Cc1ccc(-n2c(=O)c3c(cnn3C)n(CC(=O)Nc3ccc(C)cc3C)c2=O)cc1 -16.3%
CC1=C(C(=O)Nc2ccc(C)cc2C)C(c2ccc([N+](=O)[O-])cc2)n2ncc(C(=O)Nc3ccc(F)cc3)c2N1 (stereo not given) -3.54%
CN(c1ccc(F)cc1)S(=O)(=O)N1CCCC(C(=O)NCc2cccc(Br)c2)C1 (stereo not given) -34.2%
Cc1c(C(=O)N2CCC(C)CC2)c(S(=O)(=O)NCc2ccc(Cl)cc2)c(C)n1C -17%
Cc1ccccc1Cc1c(C)nc2nc(SCC(=O)N(C)c3ccccc3)nn2c1C 0.786%
CC(=O)c1ccc(N2CCN(C(=O)CCC(=O)Nc3ccc4nc(N5CCCCC5)cc(C)c4c3)CC2)cc1 6.73%
CCc1ccc(OCC(=O)Nc2c(C(=O)c3ccccc3)oc3ccccc23)cc1 -5.14%
Cc1nc(-c2cccc(S(=O)(=O)N3CCC(C(=O)NCc4ccccc4)CC3)c2)no1 -25.7%
Cc1cc(=O)n2nc(N3CCC(C(=O)NCc4ccccc4Cl)CC3)sc2n1 -1.8%
Cc1ccccc1NC(=O)CCc1c(C)nc2c(c1C)c(=O)n(C)c(=O)n2C -17.7%
CCCN(C(=O)Cn1cnc2sc(C)c(S(=O)(=O)N3CCN(c4ncccn4)CC3)c2c1=O)c1cccc(C)c1 -23.8%
COc1ccc(NS(=O)(=O)c2ccc3c(c2)oc(=O)n3C)cc1Cl -27.8%
COc1ccc(OC)c(S(=O)(=O)Nc2ccc3[nH]c(=O)[nH]c3c2)c1 4.65%
Cc1cccc(CN2C(=O)c3ccccc3S(=O)(=O)c3ccc(C(=O)N4CCCC4)cc32)c1 -22.2%
Cc1oc(-c2ccccc2Cl)nc1CS(=O)(=O)CC(=O)NC(C)CCc1ccccc1 (stereo not given) -31.7%
COc1ccc(C(=O)Nc2nc3nc(C)c(Cl)c(=O)n3[nH]2)cc1 -5.02%
